Screen size: about 150,000 compounds; about 6,500 (4.3%) were called active. The shares of active, inactive and inconclusive entries below differ from those in the screen. The call rests on the fitted dose curve; in most records, active means well fitted inhibition curve with a large enough effect (not every such curve was filed as active); inconclusive means small, poorly fitted or top-dose-only effect, or another doubt; inactive means no such curve, though single readings can be large or run the other way. Potencies of inconclusive entries are left out as doubtful fits.
The compounds below were run against 15-hydroxyprostaglandin dehydrogenase [NAD(+)] (Homo sapiens) (UniProt P15428) (assay: qHTS Assay for Inhibitors of HPGD (15-Hydroxyprostaglandin Dehydrogenase)). Conditions: purified HPGD, NADH fluorescence kinetic, PGE2 substrate; activity change, negative = inhibition: active compounds read low.
Chain of UniProt P15428 (P15428 whole entry, looked up): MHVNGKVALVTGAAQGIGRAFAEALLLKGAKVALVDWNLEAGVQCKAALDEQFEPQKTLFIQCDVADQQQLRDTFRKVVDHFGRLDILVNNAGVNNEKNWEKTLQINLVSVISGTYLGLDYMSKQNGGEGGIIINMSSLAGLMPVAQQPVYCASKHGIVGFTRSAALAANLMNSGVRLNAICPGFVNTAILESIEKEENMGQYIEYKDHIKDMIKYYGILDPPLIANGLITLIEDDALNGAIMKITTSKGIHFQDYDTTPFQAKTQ
Outline: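 NADH formation kinetics: reaction with 30 uM PGE2 and 1 mM NAD+ (final), 20 nM enzyme, Tris-HCl pH 8 with Tween 20, after 15 min compound preincubation at room temperature. Fluorescence change, last versus first of five reads.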
N#Cc1nc(-c2ccco2)oc1N1CCCC1 was tested, and the Potency was inconclusive [inhibitor, partial curve].
C/C=C/Cn1c(N(C)Cc2ccccc2)nc2c1c(=O)[nH]c(=O)n2C was tested, and the activity change, negative = inhibition was inactive: -23.9%.
In the case of Cn1cc(/C=N\NC(=O)C2COc3ccccc3O2)c2ccccc21 (centres undefined), the Potency is reported as inconclusive [inhibitor, single point].
In the case of CCOc1cc(S(=O)(=O)NC2CC2)c(OCC)cc1-n1cnnn1, the Potency is reported as inconclusive [inhibitor, partial curve].
In the case of COc1ccc(N2CCN(C(=O)CSc3ccccc3N)CC2)cc1, the Potency is reported as inconclusive [inhibitor, single point].
Clc1ccc2[nH]c3c(N4CCC5(CC4)OCCO5)ncnc3c2c1 was tested, and the Potency was inconclusive [inhibitor, partial curve].
With Cc1cccnc1N(C(=O)Nc1ccccc1)C1=NCC(C)(C)S1 the activity change, negative = inhibition was inactive: -4.88%.
For Cc1ccc(-n2nnnc2SCn2nnc3ccccc3c2=O)c(C)c1, the activity change, negative = inhibition was inactive: -12.2%.
In the case of O=C(NC(=S)N1CCN(c2ccc(Cl)cc2[N+](=O)[O-])CC1)c1ccco1, the Potency is reported as inconclusive [inhibitor, partial curve, poor fit].
With CCOc1ccccc1Oc1c(C)oc2c(CN3CCN(CCO)CC3)c(O)ccc2c1=O the Potency was inconclusive [inhibitor, partial curve].
With COc1ccc(-n2nc(C(=O)NCc3ccco3)c3c4ccccc4n(C)c3c2=O)cc1Cl the Potency was inconclusive [inhibitor, partial curve].
In the case of COc1ccc(Nc2c3c(nc4c(-c5ccccc5)c(C)nn24)CCC3)cc1, the Potency is reported as inconclusive [inhibitor, partial curve].
COCCNc1ccnc(-c2c(C)noc2C)n1 was tested, and the activity change, negative = inhibition was inactive: -4.67%.
For CSc1nc(NCc2ccccc2)c2c3c(sc2n1)CN(C)CC3, the Potency was inconclusive [inhibitor, partial curve].
For O=C1Nc2ccccc2C(=O)C1(Cl)Cc1ccccc1 (centres undefined), the Potency was active: 7.08 µM.
With O=C(CSc1ncnc2nc[nH]c12)Nc1ccccc1C(F)(F)F the Potency was active: 8.91 µM.
In the case of N#Cc1cc(-c2ccccc2)oc1/N=C/c1ccccc1O, the Potency is reported as inconclusive [inhibitor, partial curve].
With CCN(CC)S(=O)(=O)c1ccc(-c2nnc(SCC(=O)N3c4ccccc4CC3C)o2)cc1 (centres undefined) the Potency was inconclusive [inhibitor, partial curve].
With O=C(CCCn1c(=O)c2ccccc2n(Cc2ccccc2)c1=O)NCc1ccco1 the Potency was inconclusive [inhibitor, partial curve].

Source: PubChem BioAssay AID894 (National Center for Advancing Translational Sciences (NCATS), 2007)
On the % scale 0 is the no-effect control and ±100 the full control effect; potency means the concentration at half of the fitted maximal effect; tags describe the fitted curve by direction and shape.
